Laboratory results as given in article PMC11995724, “Antibiotic target discovery by integrated phenotypic and activity-based profiling of electrophilic fragments” (Cell chemical biology, 2025).
Among all 3,200 compounds or so, about 75 (2%) showed an effect of 50% or more. The list shows a part of the results.

System: T1, S. aureus MSSA476
T1 construct: MSSA476
Design: species or system S. aureus MSSA476 (TSB) or V. cholerae SAD30 (LB); 384-well bacterial growth screen at 25 uM, OD600 relative to DMSO control
Conditions: relative growth, OD600, TSB; 25 µM; inhibitor

Structure (SMILES) | % of control remaining [%]
C=CC(=O)NCc1nonc1C [2-H07, N-[(4-methyl-1,2,5-oxadiazol-3-yl)methyl]prop-2-enamide] | 108.268
CC(Cl)C(=O)NCc1cnc(N2CCOCC2)s1 (centres unmarked) [6-P05, 2-chloro-N-{[2-(morpholin-4-yl)-1,3-thiazol-5-yl]methyl}propanamide] | 78.1951
C=CC(=O)NCCC(=O)Nc1c(C)c(C)nn1C [2-G12, N-{2-[(1,3,4-trimethyl-1H-pyrazol-5-yl)carbamoyl]ethyl}prop-2-enamide] | 103.394
CC(Cl)C(=O)NC(C)C(=O)Nc1ccc(-n2cncn2)cc1 (centres unmarked) [7-P07, 2-chloro-N-(1-{[4-(1H-1,2,4-triazol-1-yl)phenyl]carbamoyl}ethyl)propanamide] | 75.6672
Cc1ccc(NC(=O)C(C#N)=Cc2cccc([N+](=O)[O-])c2)cc1 [8-J17, 2-cyano-N-(4-methylphenyl)-3-(3-nitrophenyl)prop-2-enamide] | 95.9336
C=CCNC(=O)C(C#N)=Cc1cccc(O)c1 [9-B09, 2-cyano-3-(3-hydroxyphenyl)-N-(prop-2-en-1-yl)prop-2-enamide] | 103.67
Cc1cc(-n2c(C)cc(C(=O)CCl)c2C)no1 [10-C18, 2-chloro-1-[2,5-dimethyl-1-(5-methyl-1,2-oxazol-3-yl)-1H-pyrrol-3-yl]ethan-1-one] | 123.125
O=C(CCl)c1ccc(C(F)(F)F)cc1 [10-B10, 2-chloro-1-[4-(trifluoromethyl)phenyl]ethan-1-one] | 135.938
C=CC(=O)Nc1ccc(Cl)cc1F [1-I10, N-(4-chloro-2-fluorophenyl)prop-2-enamide] | 113.582
CCCCNC(=O)C(C#N)=Cc1ccc(F)cc1 [9-P13, N-butyl-2-cyano-3-(4-fluorophenyl)prop-2-enamide] | 104.569
CCC(NC(=O)CCl)c1ccc(Cl)cc1 (centres unmarked) [6-O10, 2-chloro-N-[1-(4-chlorophenyl)propyl]acetamide] | 94.5854
C=CC(=O)N1CCC(C(=O)NCc2nc(C)c(C)s2)CC1 [3-B12, N-[(4,5-dimethyl-1,3-thiazol-2-yl)methyl]-1-(prop-2-enoyl)piperidine-4-carboxamide] | 135.481
N#CC(=CC=Cc1ccccc1[N+](=O)[O-])C(N)=O [8-F19, 2-cyano-5-(2-nitrophenyl)penta-2,4-dienamide] | 105.228
CCOc1ccc(NC(=O)C(C)Cl)cc1 (centres unmarked) [6-O09, 2-chloro-N-(4-ethoxyphenyl)propanamide] | 87.4146
C=CC(=O)NCc1cnc(C)n1-c1ccccc1 [2-F19, N-[(2-methyl-1-phenyl-1H-imidazol-5-yl)methyl]prop-2-enamide] | 112.446
CCc1ccc(NC(=O)C(C#N)=Cc2ccc(F)c(C#N)c2)cc1 [8-M20, 2-cyano-3-(3-cyano-4-fluorophenyl)-N-(4-ethylphenyl)prop-2-enamide] | 59.4191
C=CC(=O)N1CCC[C@H]1Cn1cc(C2CC2)nn1 [1-L18, 1-[(2S)-2-[(4-cyclopropyl-1H-1,2,3-triazol-1-yl)methyl]pyrrolidin-1-yl]prop-2-en-1-one] | 115.341
C=CC(=O)N(C[C@H]1CCCO1)C1CCC(CC)CC1 (stereo partly drawn) [1-D03, N-(4-ethylcyclohexyl)-N-{[(2R)-oxolan-2-yl]methyl}prop-2-enamide] | 78.4176
Cc1cccc(N(Cc2ccccc2)C(=O)CCl)c1 [6-O07, N-benzyl-2-chloro-N-(3-methylphenyl)acetamide] | 98
C=CC(=O)N1CCC(Cc2ccnn2C)CC1 [2-C19, 1-{4-[(1-methyl-1H-pyrazol-5-yl)methyl]piperidin-1-yl}prop-2-en-1-one] | 106.876
C=CC(=O)Nc1ccccc1CCSC [1-A19, N-{2-[2-(methylsulfanyl)ethyl]phenyl}prop-2-enamide] | 114.286
CCn1nc(C)c(C=C(C#N)C(=O)Nc2ccccc2Cl)c1C [9-F07, N-(2-chlorophenyl)-2-cyano-3-(1-ethyl-3,5-dimethyl-1H-pyrazol-4-yl)prop-2-enamide] | 116.554
C=CC(=O)N(C)Cc1c(C)nn(C)c1Cl [1-C15, N-[(5-chloro-1,3-dimethyl-1H-pyrazol-4-yl)methyl]-N-methylprop-2-enamide] | 104.791
C=CC(=O)N1CCN(C(=O)c2ccc(OC)c(OC)c2OC)CC1 [1-H12, 1-[4-(2,3,4-trimethoxybenzoyl)piperazin-1-yl]prop-2-en-1-one] | 128.352

Structure (SMILES) | % of control remaining [%]
O=C(CCl)C1CC12CCOCC2 (centres unmarked) [10-M15, 2-chloro-1-{6-oxaspiro[2.5]octan-1-yl}ethan-1-one] | 120.625
CCN(C(=O)C(C)Cl)C1CCCCC1 (centres unmarked) [5-I19, 2-chloro-N-cyclohexyl-N-ethylpropanamide] | 97.9964
O=C(CCl)N1CC(S(=O)(=O)Nc2ccccc2)C1 [5-G10, 1-(2-chloroacetyl)-N-phenylazetidine-3-sulfonamide] | 114.026
Cc1c(C=C(C#N)C(=O)NCc2ccccc2)cc(C#N)n1C [9-I15, N-benzyl-2-cyano-3-(5-cyano-1,2-dimethyl-1H-pyrrol-3-yl)prop-2-enamide] | 88.6891
Cn1c(=O)c(C(=O)CCl)c(N)n(Cc2ccccc2)c1=O [10-L15, 6-amino-1-benzyl-5-(2-chloroacetyl)-3-methyl-1,2,3,4-tetrahydropyrimidine-2,4-dione] | 138.125
Cc1ccc(NC(=O)CCl)cc1[N+](=O)[O-] [4-M13, 2-chloro-N-(4-methyl-3-nitrophenyl)acetamide] | 77.3702
CCn1cc(NC(=O)CCl)cn1.Cl [6-I15, 2-chloro-N-(1-ethyl-1H-pyrazol-4-yl)acetamide hydrochloride] | 103.805
O=C(CCl)NCc1ccccc1SC(F)(F)F [7-N12, 2-chloro-N-({2-[(trifluoromethyl)sulfanyl]phenyl}methyl)acetamide] | 86.3422
C=CC(=O)N(C)CC(=O)Nc1ccc(N2C[C@@H](C)O[C@@H](C)C2)cc1 [3-H08, N-[({4-[(2R,6S)-2,6-dimethylmorpholin-4-yl]phenyl}carbamoyl)methyl]-N-methylprop-2-enamide] | 117.719
Cc1csc(Cl)c1NC(=O)CCl [6-A06, 2-chloro-N-(2-chloro-4-methylthiophen-3-yl)acetamide] | 78.1951
CC1CCCN1C(=O)CNC(=O)CCl (centres unmarked) [7-L12, 2-chloro-N-[2-(2-methylpyrrolidin-1-yl)-2-oxoethyl]acetamide] | 81.6327
CC(Cl)C(=O)Nc1c(Cl)cccc1Cl (centres unmarked) [4-B16, 2-chloro-N-(2,6-dichlorophenyl)propanamide] | 98.7137
C=CC(=O)N1CCC(C(=O)Nc2ccccc2NS(C)(=O)=O)CC1 [3-C06, N-(2-methanesulfonamidophenyl)-1-(prop-2-enoyl)piperidine-4-carboxamide] | 101.001
C=CC(=O)NCCc1nc(-c2ccccc2)nn1C [2-M12, N-[2-(1-methyl-3-phenyl-1H-1,2,4-triazol-5-yl)ethyl]prop-2-enamide] | 75.8921
O=C(CCl)NC(c1ccccc1)c1ccc(Cl)cc1 (centres unmarked) [4-G04, 2-chloro-N-[(4-chlorophenyl)(phenyl)methyl]acetamide] | 106.336
N#CC(=Cc1cccs1)C(=O)Nc1nccs1 [8-G13, 2-cyano-N-(1,3-thiazol-2-yl)-3-(thiophen-2-yl)prop-2-enamide] | 89.6266
C=CC(=O)N(C)C1CS(=O)(=O)C1 [1-E03, N-(1,1-dioxo-1lambda6-thietan-3-yl)-N-methylprop-2-enamide] | 105.846
C=CC(=O)NCCNC(=O)C1CC12CCSCC2 (centres unmarked) [2-O06, N-[2-({6-thiaspiro[2.5]octan-1-yl}formamido)ethyl]prop-2-enamide] | 98.5205
C=CC(=O)Nc1ccnn1C(C)C [2-O07, N-[1-(propan-2-yl)-1H-pyrazol-5-yl]prop-2-enamide] | 112.446
C=CC(=O)N1CCC=C(c2cn(C(C)C)nn2)CC1 [3-D19, 1-{4-[1-(propan-2-yl)-1H-1,2,3-triazol-4-yl]-2,3,6,7-tetrahydro-1H-azepin-1-yl}prop-2-en-1-one] | 103.788
COc1cc(C=C(C#N)C(=O)NC2CCCCC2)cc(Cl)c1O [8-H21, 3-(3-chloro-4-hydroxy-5-methoxyphenyl)-2-cyano-N-cyclohexylprop-2-enamide] | 104.564
N#CC(=Cc1ccccc1)C(=O)Nc1nncs1 [8-K09, 2-cyano-3-phenyl-N-(1,3,4-thiadiazol-2-yl)prop-2-enamide] | 97.2614
CC(Cl)C(=O)NCCCc1c[nH]c2ccc(F)cc12 (centres unmarked) [7-J09, 2-chloro-N-[3-(5-fluoro-1H-indol-3-yl)propyl]propanamide] | 96.7033
